Experimental data: PubChem BioAssay (NCATS)
Where “and” joins values, the source holds several entries; their conditions need not be identical. Equal entries are not always repeated. This is one part of the list. These are further read-outs of the screen, such as a control signal, another cell line or another target. No call is given for them. For some of these results: Compounds called inactive in the main read-out are mostly missing here. Words in brackets tell the shape of the fitted curve; partial curves, single points and poor fits give uncertain potencies.

Experiments:
[1] = target: Histamine N-methyltransferase (Homo sapiens) (UniProt P50135); experiment: Confirmatory Screen for Target Class Profiling of Small Molecule Inhibitors of Methyltransferases (AID 1745852); conditions: MTase-Glo luminescence, SAH detection, recombinant enzyme; measured here: HNMT inhibition potency;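 also: inhibitor potency for blocking SAH production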
[2] = NCATS anti-infectives library activity on the primary C. elegans qHTS viability assay (AID 1745855); conditions: C. elegans worm area imaging, day 7; measured here: worm number, day 3
In short: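 Viability read-out is GFP fluorescence of PE254-GFP-FLuc C. elegans, measured by laser cytometry (488 nm) at day 0, 3 and 7. Ten L1 worms per well were incubated 7 days at 21 °C with compounds and bacterial capsules in S medium.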

[3] = qHTS drug screen for cell cycle checkpoint inhibitors in PARPi-resistant BRCA-mutant ovarian cancer cell lines. (AID 1963452); conditions: PEO1/OlaR viability, CellTiter-Glo luminescence, 96 h
In short: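 PEO1, PEO4 and PEO1/OlaR ovarian cancer cells, 600 per well, exposed 96 h at 37C to a dilution series. Viability read by CellTiter-Glo luminescence, normalized to DMSO and empty wells; activity summarized as Z-AUC.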

[4] = target: Phenylethanolamine N-methyltransferase (Homo sapiens) (UniProt P11086); experiment: Confirmatory Screen for Target Class Profiling of Small Molecule Inhibitors of Methyltransferases (AID 1745852); conditions: MTase-Glo luminescence, SAH detection, recombinant enzyme; measured here: PNMT inhibition potency;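 also: inhibitor potency for blocking SAH production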
[5] = qHTS assay for small molecule antagonists of peroxisome proliferator-activated receptor gamma signaling (AID 588537); conditions: HEK293 PPARg-UAS-bla, beta-lactamase ratio, antagonist mode; measured here: W460 blue channel
In short: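 PPARγ-UAS-bla HEK293 cells (3000/well) in 1% charcoal/dextran-stripped FBS are treated with compound, then stimulated with 50 nM rosiglitazone for 16 h at 37 °C. Read-out is CCF4 β-lactamase fluorescence after 2 h at RT. IC50 comes from Hill fits normalised to rosiglitazone and DMSO.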

[6] = target: Nicotinamide N-methyltransferase (Homo sapiens) (UniProt P40261); experiment: Confirmatory Screen for Target Class Profiling of Small Molecule Inhibitors of Methyltransferases (AID 1745852); conditions: MTase-Glo luminescence, SAH detection, recombinant enzyme; measured here: NNMT inhibition potency;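 also: inhibitor potency for blocking SAH production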
[7] = qHTS for identification of novel therapeutic agents for treatment of microphthalmiaassociated transcription factor (MiT) renal cell carcinoma (RCC) (AID 1963991); conditions: CellTiter-Glo, 48 h; for z-score: stronger effect = lower value;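 as to z-score: curves scaled with 100% = DMSO viability and 0% = empty wells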
In short: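 UOK109/UOK124/UOK145 (TFE3 fusions, three partners); 500 cells/well; MIPE v4.0, 1912 cpds, 11 conc.; 48 h, 37 C; CellTiter-Glo, 15 min RT; lum. Norm.: DMSO 100%, empty 0%.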

[8] = measured here: PEO1 parental viability
[9] = TFE3-RCC UOK109 viability, measured here: UOK109 Z-AUC
[10] = TFE3-RCC viability, measured here: UOK124 Z-AUC
[11] = TFE3-RCC viability, measured here: UOK124 cell viability
[12] = TFE3-RCC viability, measured here: UOK145 Z-AUC
[13] = TFE3-RCC viability, measured here: UOK145 cell viability
Tags tell the direction and shape of the fitted curve.

Sequence of UniProt P40261 (P40261 whole entry, looked up): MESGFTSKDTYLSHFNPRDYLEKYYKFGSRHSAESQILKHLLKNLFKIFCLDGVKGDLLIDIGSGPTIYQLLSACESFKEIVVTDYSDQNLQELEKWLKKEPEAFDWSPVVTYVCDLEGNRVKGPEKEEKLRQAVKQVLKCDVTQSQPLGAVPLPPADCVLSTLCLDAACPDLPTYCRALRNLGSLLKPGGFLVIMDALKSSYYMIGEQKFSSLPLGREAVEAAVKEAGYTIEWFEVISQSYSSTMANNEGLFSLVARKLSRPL
Sequence of UniProt P11086 (P11086 whole entry, looked up): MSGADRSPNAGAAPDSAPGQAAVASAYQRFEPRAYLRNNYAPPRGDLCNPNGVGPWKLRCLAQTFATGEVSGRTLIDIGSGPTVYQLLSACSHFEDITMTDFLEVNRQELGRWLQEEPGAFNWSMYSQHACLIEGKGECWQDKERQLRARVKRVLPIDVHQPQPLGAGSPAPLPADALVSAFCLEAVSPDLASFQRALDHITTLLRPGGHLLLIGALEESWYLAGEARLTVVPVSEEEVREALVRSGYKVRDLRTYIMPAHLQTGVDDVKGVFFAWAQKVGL
Sequence of UniProt P50135 (P50135 whole entry, looked up): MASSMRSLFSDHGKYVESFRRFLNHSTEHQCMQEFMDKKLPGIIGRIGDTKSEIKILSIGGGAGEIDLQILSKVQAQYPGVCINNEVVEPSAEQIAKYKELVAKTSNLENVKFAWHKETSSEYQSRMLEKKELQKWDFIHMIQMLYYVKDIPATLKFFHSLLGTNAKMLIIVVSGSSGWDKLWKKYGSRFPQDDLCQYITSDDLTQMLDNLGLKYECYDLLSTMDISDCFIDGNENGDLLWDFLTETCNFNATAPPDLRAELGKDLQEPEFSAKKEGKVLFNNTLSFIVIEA

O=C(/C=C/c1ccc(CN(CCO)CCc2c[nH]c3ccccc23)cc1)NO
IC50 [1]: 13.7 µM [falling, partial curve] | AC50 [2]: 0.0916 µM [falling, full curve, poor fit] | AC50 [3, 8]: 0.389 µM [falling, full curve] | AC50 ([3]; measured here: PEO4 viability): 0.389 µM [falling, full curve]

Cn1ccc(Nc2cc3c(cn2)CN(CCc2ccccc2)CCN3)n1
IC50 [1]: 1.97 µM [falling, full curve] | IC50 [4]: 31.2 µM [falling, partial curve]

CC(C)(C)CC(C)(C)c1ccc(OCCOCC[N+](C)(C)Cc2ccccc2)cc1
AC50 [5]: 44.7 µM [rising, single point] and 50.1 µM [falling, single point] | IC50 [1]: 19.2 µM [falling, partial curve] | IC50 [6]: 21.5 µM [falling, partial curve]

CC(C)N(CCCNC(=O)Nc1ccc(C(C)(C)C)cc1)C[C@H]1O[C@@H](n2ccc3c(N)ncnc32)[C@H](O)[C@@H]1O
IC50 [1]: 24.1 µM [falling, partial curve] | AC50 ([3]; measured here: PEO4 viability): 19.5 µM [falling, single point]

Cc1cc(O)c(-c2ccc([C@@H](C)CN(C)C)cc2)c2c1[nH]c(=O)c1sccc12
IC50 [1]: 1.52 µM [falling, full curve] | IC50 [6]: 17.1 µM [falling, partial curve] | IC50 [4]: 24.1 µM [falling, partial curve] | AC50 [3, 8]: 0.195 µM [falling, full curve] | AC50 ([3]; measured here: PEO4 viability): 0.174 µM [falling, full curve]

O=C1c2ccccc2C(=O)c2c1cccc2S(=O)(=O)Nc1ccc(Cl)cc1
IC50 [1]: 10.8 µM [falling, partial curve] | IC50 [4]: 24.1 µM [falling, partial curve]

N#Cc1ccc(COC[C@H]2O[C@@H](n3c(NCc4ccc(Cl)c(Cl)c4)nc4c(N)ncnc43)[C@H](O)[C@@H]2O)cc1
IC50 [1]: 10.5 µM [falling, partial curve] | IC50 [6]: 6.63 µM [falling, partial curve] | IC50 [4]: 8.35 µM [falling, partial curve] | AC50 [3, 8]: 4.36 µM [falling, full curve] | AC50 ([3]; measured here: PEO4 viability): 7.76 µM [falling, partial curve]

CCn1c2ccccc2c2cc(Nc3ccnc(NCCCN4CCOCC4)n3)ccc21
IC50 [1]: 2.71 µM [falling, full curve] | IC50 [6]: 21.5 µM [falling, partial curve] | IC50 [4]: 24.1 µM [falling, partial curve, poor fit]

Fc1ccc2[nH]ccc2c1-c1nc(N2CCOCC2)c2sc(CN3CCN(CC4CC4)CC3)cc2n1
IC50 [1]: 10.8 µM [falling, partial curve] | IC50 [6]: 19.2 µM [falling, partial curve] | AC50 ([3]; measured here: PEO4 viability): 15.5 µM [falling, partial curve]

CN1CCN(CCOc2cc(OC3CCOCC3)c3c(Nc4c(Cl)ccc5c4OCO5)ncnc3c2)CC1
IC50 [1]: 6.07 µM [falling, full curve] | IC50 [6]: 24.1 µM [falling, single point] | AC50 [2]: 0.023 µM [falling, full curve, poor fit] | AC50 [3, 8]: 15.5 µM [falling, partial curve] | AC50 ([3]; measured here: PEO4 viability): 19.5 µM [falling, partial curve] | z-score [7, 9]: -1.98 | z-score [7, 10]: -0.156 | AC50 [7, 11]: 16.6 µM [falling, partial curve] | z-score [7, 12]: -0.208 | AC50 [7, 13]: 3.72 µM [falling, full curve]

COc1cc2c(NC3CCN(C(C)C)CC3)nc(C3CCCCC3)nc2cc1OCCCN1CCCC1
IC50 [1]: 7.64 µM [falling, partial curve] | IC50 [6]: 21.5 µM [falling, partial curve] | z-score [7, 9]: -0.205 | z-score [7, 10]: -2.01 | AC50 [7, 11]: 6.62 µM [falling, full curve] | z-score [7, 12]: -0.521 | AC50 [7, 13]: 9.35 µM [falling, partial curve]

Nc1nccc(Oc2ccc(NC(=O)c3c[nH]cc(-c4ccc(F)cc4)c3=O)cc2F)c1Cl
IC50 [1]: 6.07 µM [falling, full curve] | IC50 [6]: 6.07 µM [falling, full curve] | AC50 [3, 8]: 15.5 µM [falling, partial curve] | AC50 ([3]; measured here: PEO4 viability): 12.3 µM [falling, partial curve] | z-score [7, 9]: 0.372 | z-score [7, 10]: 1.08 | AC50 [7, 11]: 23.5 µM [falling, partial curve] | z-score [7, 12]: -0.0965 | AC50 [7, 13]: 20.9 µM [falling, partial curve]

CC(C)N(C[C@H]1O[C@@H](n2cnc3c(N)ncnc32)[C@H](O)[C@@H]1O)C1CC(CCc2nc3ccc(C(C)(C)C)cc3[nH]2)C1 (stereo not given in full)
IC50 [1]: 19.2 µM [falling, partial curve] | IC50 [6]: 1.21 µM [falling, full curve] and 1.52 µM [falling, full curve] | IC50 [4]: 5.41 µM [falling, full curve] and 6.07 µM [falling, full curve] | AC50 [3, 8]: 0.123 µM [rising, full curve, poor fit]

c1ccc(Cn2c(-c3ccc(OCC(C4CCNCC4)n4c(-c5ccccc5)nc5ccccc54)cc3)nc3ccccc32)cc1 (stereo not given)
IC50 [1]: 21.5 µM [falling, partial curve] | IC50 [6]: 19.2 µM [falling, partial curve] | AC50 [3, 8]: 19.5 µM [falling, single point] | AC50 ([3]; measured here: PEO4 viability): 6.92 µM [falling, partial curve]

Nc1nc(NCC2CCC(CNS(=O)(=O)c3cccc4ccccc34)CC2)nc2ccccc12 (stereo not given)
IC50 [1]: 5.41 µM [falling, full curve] | IC50 [6]: 24.1 µM [falling, partial curve, poor fit] | IC50 [4]: 17.1 µM [falling, partial curve, poor fit]

CCNC(=O)C#Cc1ccc2c(C(=Nc3ccc(CN(C)C)cc3)c3ccccc3)c(O)[nH]c2c1
IC50 [1]: 6.63 µM [falling, partial curve] | IC50 [6]: 10.5 µM [falling, partial curve] | AC50 [3, 8]: 0.379 µM [falling, full curve] | AC50 ([3]; measured here: PEO4 viability): 0.0952 µM [falling, full curve]

COc1ccc(-c2cc3c(cn2)CN(CCc2ccccc2)CCN3)cc1OC
IC50 [1]: 15.6 µM [falling, partial curve] | IC50 [4]: 31.2 µM [falling, partial curve]

CCn1cc(-c2ccnc3[nH]c(-c4cccc(CN(C)C)c4)cc23)c(-c2ccc(NC(=O)N(C)C)cc2)n1
IC50 [1]: 3.32 µM [falling, partial curve] and 4.32 µM [falling, full curve] | IC50 [6]: 24.3 µM [falling, partial curve] | AC50 [3, 8]: 6.92 µM [falling, partial curve] | AC50 ([3]; measured here: PEO4 viability): 5.49 µM [falling, partial curve] | z-score [7, 9]: -0.057 | z-score [7, 10]: -1.98 | AC50 [7, 11]: 11.8 µM [falling, partial curve] | z-score [7, 12]: -0.197 | AC50 [7, 13]: 10.5 µM [falling, partial curve]

O=C1CSc2ccccc2N1Cc1cccc(C(F)(F)F)c1
IC50 [6]: 21.5 µM [falling, partial curve]

COc1ccc2c(Oc3ccc(NC(=O)c4c(C)n(CC(C)(C)O)n(-c5ccccc5)c4=O)cc3F)ccnc2c1
IC50 [1]: 6.07 µM [falling, full curve] | AC50 [3, 8]: 19.5 µM [falling, partial curve] | AC50 ([3]; measured here: PEO4 viability): 19.5 µM [falling, single point] | z-score [7, 9]: 0.0821 | z-score [7, 10]: 0.122 | AC50 [7, 11]: 26.4 µM [falling, single point] | z-score [7, 12]: -1.18 | AC50 [7, 13]: 29.6 µM [falling, single point]

Cc1ccc(N(C)S(=O)(=O)c2ccc3c(c2)n(C)c(=O)n3C)cc1
IC50 [6]: 21.5 µM [falling, partial curve]

CC(C)n1nc(-c2ccc(NC(=O)Nc3cccc(C(F)(F)F)c3)cc2)c2c(N)ncnc21
IC50 [6]: 15.2 µM [falling, partial curve]

Cc1nc(Nc2n[nH]c3c2CN(C(=O)N[C@H](CN(C)C)c2ccccc2)C3(C)C)c2sccc2n1
IC50 [1]: 19.2 µM [falling, partial curve] | AC50 [3, 8]: 1.55 µM [falling, full curve] | AC50 ([3]; measured here: PEO4 viability): 1.74 µM [falling, full curve, poor fit] | z-score [7, 9]: -1.35 | z-score [7, 10]: -0.702 | AC50 [7, 11]: 5.26 µM [falling, partial curve] | z-score [7, 12]: -1.07 | AC50 [7, 13]: 6.62 µM [falling, partial curve]

NC(=O)c1cccc2[nH]c(-c3ccc([C@@H]4CCCN4)cc3F)nc12
IC50 [1]: 19.2 µM [falling, partial curve] | AC50 [3, 8]: 11 µM [falling, partial curve, poor fit] | AC50 ([3]; measured here: PEO4 viability): 19.5 µM [falling, single point]

c1ccc2c(Oc3nc(Nc4ccc(N5CCOCC5)cc4)c4ncn(C5CCCCC5)c4n3)cccc2c1
IC50 [1]: 5.41 µM [falling, full curve] | AC50 [3, 8]: 13.8 µM [falling, single point] | AC50 ([3]; measured here: PEO4 viability): 24.5 µM [falling, single point] | z-score [7, 9]: -0.199 | z-score [7, 10]: 0.413 | AC50 [7, 11]: 18.7 µM [falling, partial curve, poor fit] | z-score [7, 12]: -0.0614

COc1cc(N2CCC(N3CCN(C)CC3)CC2)ccc1Nc1ncc(Cl)c(Nc2ccccc2S(=O)(=O)C(C)C)n1
IC50 [1]: 19.2 µM [falling, partial curve] | AC50 [3, 8]: 2.19 µM [falling, full curve] | AC50 ([3]; measured here: PEO4 viability): 1.74 µM [falling, full curve] | AC50 [7, 11]: 5.9 µM [falling, full curve] | AC50 [7, 13]: 10.5 µM [falling, partial curve, poor fit]
